Reference: PubChem BioAssay AID743255 (National Center for Advancing Translational Sciences (NCATS), 2014)
The whole screen tested about 390,000 compounds, of which about 910 (0.23%) were called active. Roughly 5% stayed inconclusive and do not appear here. Calls follow the shape of the dose curve; as a rule, active = well fitted inhibition curve with a large enough effect; inconclusive = small, poorly fitted or top-dose-only effect; inactive = no such curve, though single readings can be large or run the other way. Only a part is listed here, and it is no random draw.

Target: Ubiquitin carboxyl-terminal hydrolase 1 (Homo sapiens) (UniProt O94782)
Assay: Inhibitors of USP1/UAF1: Primary Screen; also: nearly all actives have a fitted effect of over 60% in size
Conditions: recombinant USP1/UAF1, Ub-Rhodamine cleavage fluorescence; activity change, negative = inhibition: at 57.1 µM (top of the series)
In short: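 USP1/UAF1 complex (1 nM) preincubated 15 min at room temperature with compound, then Ub-Rho substrate (150 nM final) added. Kinetic fluorescence at 480/540 nm over 6 reads at 60 s intervals; 50 mM HEPES pH 7.8, 0.5 mM EDTA, 0.1 mg/ml BSA, 1 mM TCEP, 0.01% Tween-20.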
% is scaled to controls: 0 for no effect and ±100 for the full control effect; potency is read from the fitted curve at half-maximal effect.

UniProt O94782, sequence (O94782 whole entry, looked up): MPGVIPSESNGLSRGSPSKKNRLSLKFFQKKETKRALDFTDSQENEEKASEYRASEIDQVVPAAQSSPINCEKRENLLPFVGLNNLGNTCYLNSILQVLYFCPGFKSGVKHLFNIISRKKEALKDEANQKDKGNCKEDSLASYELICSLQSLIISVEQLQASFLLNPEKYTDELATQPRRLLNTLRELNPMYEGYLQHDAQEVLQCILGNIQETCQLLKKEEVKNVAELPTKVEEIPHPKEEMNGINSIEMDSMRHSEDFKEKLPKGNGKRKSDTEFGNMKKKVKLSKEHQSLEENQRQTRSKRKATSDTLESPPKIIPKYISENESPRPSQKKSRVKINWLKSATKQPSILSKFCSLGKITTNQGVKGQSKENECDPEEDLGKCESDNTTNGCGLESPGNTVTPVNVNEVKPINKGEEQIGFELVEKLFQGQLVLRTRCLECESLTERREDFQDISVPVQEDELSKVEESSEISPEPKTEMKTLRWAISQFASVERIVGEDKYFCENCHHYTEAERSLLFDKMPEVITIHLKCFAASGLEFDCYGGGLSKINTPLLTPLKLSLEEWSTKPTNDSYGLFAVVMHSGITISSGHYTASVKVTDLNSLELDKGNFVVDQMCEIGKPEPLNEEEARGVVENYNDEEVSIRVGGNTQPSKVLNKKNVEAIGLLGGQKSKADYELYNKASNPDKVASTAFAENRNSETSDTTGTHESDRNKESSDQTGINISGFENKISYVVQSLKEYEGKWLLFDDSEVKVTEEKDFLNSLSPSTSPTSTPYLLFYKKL

Activity change, negative = inhibition, inactive:
Cc1cccc(NC(=O)c2ccc(NCCc3ccccc3)c([N+](=O)[O-])c2)c1 43.9%
O=C(NCC1CCCO1)/C(=C/c1ccccc1F)NC(=O)c1ccccc1 (stereo not drawn) 2.07%
CCc1nc2ccc(C(=O)NCCc3ccccc3OC)cc2nc1CC -9.96%
Cc1ccc([C@H]2C[C@@H](n3cc(COC(=O)c4ccccc4)nn3)[C@H](O)CN2C(=O)c2cccs2)cc1 -10.6%
CCOC(=O)N1CCN(c2nc3ccccc3nc2C(C#N)C(=O)NCCc2ccccc2)CC1 (stereo not drawn) -15.9%
Cc1cccc(S(=O)(=O)N(C)C[C@@H]2OCc3cnnn3CCCC(=O)N([C@H](C)CO)C[C@H]2C)c1 -11.7%
C[C@@H]1CN([C@@H](C)CO)C(=O)CCCn2nncc2CO[C@H]1CN(C)Cc1ccc(Oc2ccccc2)cc1 -24.9%
COc1ccc(NC(=O)c2ccc(NC(=O)CCS(=O)(=O)c3cccs3)cc2)cc1 -18.4%
C[C@H]1CN([C@@H](C)CO)C(=O)CCCn2nncc2CO[C@H]1CN(C)S(=O)(=O)c1ccc(Cl)cc1 -19.9%
C=CC[C@@H](CC(=O)NCCO)C(=O)N[C@@H](COC(=O)[C@@H](CC=C)CC(=O)OC(C)(C)C)Cc1c[nH]c2ccccc12 -30.7%
CCOC(=O)N1C(=O)[C@](CC)(c2ccccc2)N1C(=O)OCC -23.7%
Cc1ccc(C(=O)Nc2cccc(C(F)(F)F)c2)cc1NC(=O)c1ccno1 -26.7%
O=c1[nH]c(C2CCCN(S(=O)(=O)c3ccccc3)C2)nc2c1nnn2Cc1ccccc1Br (stereo not drawn) -1.59%
OCC[C@H]1C[C@@H](O)[C@H](O)[C@@]2(CCCc3ccccc3O2)O1 6.74%
CCOc1ccc(NS(=O)(=O)c2c(C)nc3sc(CC)nn3c2=O)cc1 5.74%
C=CCC[C@H](Cc1ccc(F)cc1)C(=O)OC[C@@H](Cc1c[nH]c2ccccc12)NC(=O)[C@@H](CC=C)CC(=O)NCCO 1.53%
CCOC(=O)[C@@H]1[C@H]2COc3cc(OC)ccc3[C@@H]2N2C(=O)N(c3ccc(Br)cc3)C(=O)[C@]12C -25.8%
CCCCCC(=O)N1C[C@@H](O)[C@H](n2cc(COC(=O)c3ccccc3)nn2)C[C@@H]1c1ccc(C)cc1 -10.7%
C=CCC[C@@H](Cc1ccc(F)cc1)C(=O)OC[C@@H](Cc1c[nH]c2ccccc12)NC(=O)[C@H](CC=C)CC(=O)N(CCO)Cc1ccccc1 -32.7%
C[C@@H]1COC(=O)[C@@H](CC(=O)OC(C)(C)C)C/C=C\C[C@@H](CC(=O)NCCO)C(=O)N1 -28.2%
C=CC[C@@H](CC(=O)N(CCO)Cc1ccccc1)C(=O)N[C@@H](COC(=O)[C@@H](CC=C)Cc1ccc(F)cc1)Cc1ccccc1 -29.6%
CN(C[C@H](Cc1ccccc1)N(C[C@@H](Cc1cccc2ccccc12)N(CCc1ccccc1)N=O)N=O)N=O -28.9%
CC1CCCN(c2nc3ccccc3nc2C(C#N)S(=O)(=O)c2ccccc2)C1 (stereo not drawn) 205%
COc1ccc(/C=C2/CCc3ccccc3C2=O)cc1CN1CCOCC1 -5.72%
Cc1cccc(/C=C/c2onc(C)c2S(=O)(=O)N2CCC(C(=O)N3CCC(C)CC3)CC2)c1 -11.5%
C=CC[C@H](CC(=O)OC(C)(C)C)C(=O)OC[C@@H]1CCCN1C(=O)[C@H](CC=C)CC(=O)N[C@H](CO)Cc1ccccc1 -26.7%
CCN(CC)c1ccc2c(Cl)c(Br)c(=O)oc2c1 74%
COc1ccc(-c2cc(C)no2)cc1S(=O)(=O)NCc1ccc(OC(C)C)cc1 -8.06%
C=C(C)C(=O)Nc1cccc(C2=NOC3(C2)C[C@H](C(N)=O)N(C(=O)c2ccccc2)C3)c1 (stereo partly drawn) 55.6%
CCOc1ccc(/C=C(\C#N)c2nc(-c3cc4ccccc4oc3=O)cs2)c(OCC)c1 73.1%
O=C(C[C@@H]1C/C=C/CC[C@@H](Cc2ccc(F)cc2)C(=O)OC[C@H](Cc2ccccc2)NC1=O)N[C@H](CO)Cc1ccccc1 -14.6%
CCOc1ccc(NC(=O)C(NC(=O)C2CCC(C)CC2)C(C)C)cc1 (stereo not drawn) -15%
C[C@@H]1CN([C@@H](C)CO)C(=O)CCCn2nncc2CO[C@H]1CN(C)S(=O)(=O)c1ccc(-n2cccn2)cc1 2.71%
COc1ccc(N2CCN(C(=O)c3ccc(CS(=O)(=O)c4ccc(Br)cc4)o3)CC2)cc1 -15.3%
COC(=O)N1N=C(c2ccccc2)CC1(O)C(F)(F)F (stereo not drawn) -24.8%
OCC[C@H]1C[C@@H](O)[C@H](O)[C@@]2(CCCO2)O1 -0.945%
CCC(Oc1ccccc1)C(=O)Nc1nnc(S(=O)(=O)N2CCCC2)s1 (stereo not drawn) 6.22%
CC(=Nc1ccc(O)cc1)c1sc2ccccc2c1O 113%
Cc1ccc(N2CC(C(=O)NCCS(=O)(=O)N3CCN(c4ccc(F)cc4)CC3)CC2=O)cc1 (stereo not drawn) -29.2%
CC(=O)Oc1cccc2c1C(=O)c1c(OC(C)=O)cc(C(=O)O)cc1C2=O 11%
COc1ccc(Cl)cc1S(=O)(=O)Nc1ccc2c(c1)n(C)c(=O)n2C -23.4%
C[C@@H]1CN(S(=O)(=O)C(C)(C)C)[C@@H](CCO)/C1=C\c1ccccc1 -20.9%
CCOc1ccc(N(CC(=O)NCc2ccc(C)cc2)S(=O)(=O)c2c(C)[nH]c(=O)[nH]c2=O)cc1 4.21%
COc1ccccc1NC(=O)N(C)C[C@H]1OCc2cn(nn2)CCCC(=O)N([C@@H](C)CO)C[C@@H]1C -9.3%
Cc1noc(C)c1NC(=O)Nc1cccc2c1O[C@H](CN(C)C(=O)Nc1ccc3c(c1)OCO3)[C@@H](C)CN([C@H](C)CO)C2=O -12.5%
CC(C)(C)OC(=O)C[C@H]1C/C=C\C[C@@H](CC(=O)N[C@H](CO)Cc2ccccc2)C(=O)NC[C@@H](c2ccccc2)OC1=O -14%
CCOC(=O)N1CCC(Nc2c(NCCN3CCN(c4ccccc4F)CC3)c(=O)c2=O)CC1 -5.04%
CCN(CC)c1ccc(NC(=O)CCS(=O)(=O)c2cccc3nsnc23)c(C)c1 -13.2%
Cc1cccc(NC(c2cccc(Cl)c2)c2ccc3cccnc3c2O)n1 (stereo not drawn) 43.2%
OC[C@H]1OC(O)[C@@H](O)[C@@H](O)[C@@H]1O (stereo partly drawn) -17.5%
C[C@H](CO)N1C[C@H](C)[C@@H](CN(C)C(=O)NC2CCCCC2)OCc2cnnn2CCCC1=O -15.1%
C=CCC[C@@H](Cc1ccc(F)cc1)C(=O)OC[C@H](Cc1c[nH]c2ccccc12)NC(=O)[C@H](CC=C)CC(=O)NCCO -9.24%
COC(C[C@H]1O[C@@H]1[C@H](O)COCc1ccccc1)OC -4.6%
COc1ccc(N=C/C=C2/C=C(c3ccccc3)OC(C)(C)O2)cc1 -19.7%
COc1cc(CN(C(=O)c2cc3ccccc3oc2=O)C2CCS(=O)(=O)C2)cc(OC)c1OC (stereo not drawn) -25.4%
CC(C)OC(=O)N(C)C[C@@H]1OCc2cnnn2CCCC(=O)N([C@@H](C)CO)C[C@H]1C -29%
C=CCOC(=O)C1=C[C@@H](c2csc3ccccc23)C[C@@H](OCc2ccc(CO)cc2)O1 -29%
C=CC[C@@H](CC(=O)N[C@@H](CO)Cc1ccccc1)C(=O)N[C@H](COC(=O)[C@@H](CC=C)Cc1ccc(F)cc1)C(C)(C)C -1.93%
C/C(N)=C(/C#N)C(=O)CSc1nnc(Nc2c(C)cccc2C)s1 -13.4%
Cc1cc(C)c(NC(=O)C(C)c2cccc(C(=O)c3ccccc3)c2)c(C)c1 (stereo not drawn) -11%
CCOc1ccc2nc(/N=C/c3nc(-c4ccc(Br)cc4)oc3O)sc2c1 138%
O=C1NC(=O)/C(=C/c2ccccc2OCc2ccccc2)S1 -12.2%
CCOc1cc(/C=C(\C#N)C(=O)Nc2cccc(C(=O)O)c2)ccc1OCc1ccc(Br)cc1 -32.9%
C[C@H](CO)N1C[C@H](C)[C@H](CN(C)C(=O)Nc2ccccc2F)OCc2cnnn2CCCC1=O -19.4%
CC(C)OC(=O)N(C)C[C@@H]1OCc2cnnn2CCCC(=O)N([C@H](C)CO)C[C@@H]1C -16%
O=C(NCc1ccccc1Cl)c1ccc2c(c1)NC(=O)C(CS(=O)(=O)Cc1ccc(F)cc1Cl)N2 (stereo not drawn) 57.6%
CCN1C(=O)c2ccccc2S(=O)c2ccc(C(=O)NCc3ccc(OC)cc3)cc21 (stereo not drawn) -20%
Cc1c(Cl)cccc1NC(=O)CC1Oc2ccccc2NC1=O (stereo not drawn) -5.79%
COC(=O)[C@@H]1C[C@H]1[C@@H](NS(=O)(=O)c1ccccc1)c1ccccc1 -19.2%
COc1ccc(C2CC(=O)c3cc(-c4nc(-c5ccc(Cl)cc5)c(C)s4)c(=O)[nH]c3C2)cc1 (stereo not drawn) -29.1%

Potency, active:
O=C(O)c1ccccc1-c1ccc(/C=C/c2cc(C(F)(F)F)[nH]c(=O)n2)o1 28.2 µM
COc1ccc(NC(=O)CSc2ccc3c4c(cccc24)C(=O)c2ccccc2-3)cc1 25.1 µM
CCOC(=O)c1c(C)sc(-c2c(-c3cccc(Cl)c3)[nH]c3c2c(=O)n(C)c(=O)n3C)c1O 15.8 µM
COc1cc2c(C#N)c(N3CCCC3)nc(N)c2c(N)n1 7.94 µM
COc1ccc(C2C(C(=O)c3cccs3)=C(O)C(=O)N2c2nncs2)cc1 (stereo not drawn) 2 µM
O=C1c2cccc3c(O)ccc(c23)C(=O)N1Cc1ccco1 28.2 µM
O=C(NCc1cccc(F)c1)c1cccc2c1C(=O)c1ccc(N3CCC(Cc4ccccc4)CC3)cc1S2(=O)=O 7.94 µM
Cc1cc2nc3c(=O)n(CCc4ccccc4)c(=O)[nH]c3nc2cc1N 17.8 µM
O=C1C=C(N(CCO)Cc2ccccc2)c2ccccc2C1=O 3.55 µM
CCc1ccc(S(=O)(=O)/N=C2\C=C(Nc3ccc(O)cc3)C(=O)c3ccccc32)cc1 10 µM
O=C(O)CCCNc1cc(N2CCN(C(=O)c3ccco3)CC2)c2noc3c2c1C(=O)c1ccccc1-3 28.2 µM
NC1=C(Cl)C(=O)c2ccc(S(N)(=O)=O)cc2C1=O 1.26 µM
O=C1C=C(Nc2ccccc2O)c2ccccc2C1=O 17.8 µM
